Source: PubChem BioAssay AID624417 (National Center for Advancing Translational Sciences (NCATS), 2012)
Several values for one entry are separate records, joined by “and”; a condition that tells them apart may be missing. Identical values can stand only once. Out of some 410,000 compounds screened, about 6,400 (1.6%) were called active. The shares of active, inactive and inconclusive entries below differ from those in the screen. The call rests on the fitted dose curve; in most records, active means well fitted inhibition curve with a large enough effect; inconclusive means small, poorly fitted or top-dose-only effect; inactive means no such curve, though single readings can be large or run the other way. A potency beside an inconclusive call is a rough fit, not a confirmed value.

molecular target: Glucagon-like peptide 1 receptor (Homo sapiens) (UniProt P43220); assay: qHTS of GLP-1 Receptor Inverse Agonists (Inhibition Mode); details: HEK293 GLP-1R CRE-luciferase, luminescence, 24 h, GLP-1R form is constitutively active; series mostly up to 38.3 µM; further: nearly all actives have a fitted effect of over 55% in size
Summary of the method: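 Inverse agonism was detected as reduced cAMP-driven luciferase luminescence after 24 h compound treatment. The cells were HEK293 clones expressing constitutively active human GLP-1R with the reporter. Reporter-only and GPR119 cell lines served as counterscreen controls.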
Potency means the concentration at half of the fitted maximal effect; tags describe the fitted curve by direction and shape.

UniProt P43220, sequence (P43220 whole entry, looked up): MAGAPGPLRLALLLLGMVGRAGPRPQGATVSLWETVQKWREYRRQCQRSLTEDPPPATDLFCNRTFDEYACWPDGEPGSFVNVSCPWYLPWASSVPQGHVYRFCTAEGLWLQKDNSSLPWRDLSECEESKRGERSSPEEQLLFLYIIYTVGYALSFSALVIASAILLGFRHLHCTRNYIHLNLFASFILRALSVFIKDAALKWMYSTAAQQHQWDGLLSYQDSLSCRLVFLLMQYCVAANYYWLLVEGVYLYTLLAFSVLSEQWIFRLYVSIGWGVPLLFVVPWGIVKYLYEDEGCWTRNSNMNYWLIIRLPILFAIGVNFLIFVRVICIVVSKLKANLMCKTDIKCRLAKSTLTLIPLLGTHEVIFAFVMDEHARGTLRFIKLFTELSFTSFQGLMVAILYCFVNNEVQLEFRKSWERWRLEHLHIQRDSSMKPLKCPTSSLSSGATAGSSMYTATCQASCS

| Compound | Potency |
| --- | --- |
| O=C(COc1ccc([N+](=O)[O-])cc1)Nc1ccc2c(c1)CCC2 | inconclusive: 11.2 µM [inhibitor, single point] |
| CCOC(=O)c1noc2nc(C)n(Cc3cccc(C#N)c3)c(=O)c12 | inactive |
| COc1ccc(C)cc1N/C(N)=N/c1nc(C)cc(C)n1 | inactive |
| CCOc1ccc(NS(=O)(=O)c2ccc(NC(=S)NC(=O)C(C)C)cc2)cc1 | inconclusive: 22.4 µM [inhibitor, single point] |
| COC(=O)c1cc(-c2ccc(S(=O)(=O)N3CCCC3)cc2)c(C(F)(F)F)s1 | inconclusive: 28.2 µM [inhibitor, single point] |
| Oc1c(CN2CCc3ccccc3C2)cc(Cl)c2cccnc12 | inconclusive: 1.41 µM [inhibitor, full curve, poor fit] |
| Cc1cccc(NC(=O)Cn2c(=O)ccc3cc(S(=O)(=O)N4CCCC4)ccc32)c1C | inactive |
| CCc1nc2ccc(C(=O)NC3CCN(Cc4ccccc4)CC3)cn2c1N(CC)CCOC | inactive |
| Cc1ccc(NC(=O)c2ccc(NC(=O)c3ccccc3)cc2)cc1C | inconclusive: 2.82 µM [inhibitor, full curve] |
| CCOC(=O)c1ccc(NC(=O)CCS(=O)(=O)c2ccc(Br)s2)cc1 | inconclusive: 28.2 µM [inhibitor, single point] |
| CCOC(=O)N1CCN(C(=O)c2cnc(Nc3ccccc3OC)c3ccccc23)CC1 | inconclusive: 28.2 µM [inhibitor, single point] |
| Cn1cccc1C(=O)C(=O)Nc1ccc(Cl)cc1 | inconclusive: 10 µM [inhibitor, single point] |
| CCNc1nc2c(c(=O)n(Cc3ccccc3)c(=O)n2C)n1Cc1ccccc1 | inconclusive: 11.2 µM [inhibitor, partial curve, poor fit] |
| CCCCCNC(=O)C(c1ccc(OC)cc1)n1c(=O)c(-c2ccccc2)nc2ccccc21 (stereo not drawn) | inconclusive: 12.6 µM [inhibitor, partial curve, poor fit] |
| CCC1CCCCN1CCCNC(=O)c1ccc(CS(=O)(=O)c2ccc(Br)cc2)o1 (stereo not drawn) | inconclusive: 8.91 µM [inhibitor, partial curve] |
| Cc1cc(NC(=O)CCC(=O)N(c2cccnc2)C(C(=O)NC2CCCC2)c2ccccc2)no1 (stereo not drawn) | inactive |
| COc1ccc(CC(N)c2csc(NC(=O)Nc3cccc(C(F)(F)F)c3)n2)cc1 (stereo not drawn) | inconclusive: 28.2 µM [inhibitor, single point] |
| COc1ccc(-n2nc(C(=O)NCC(=O)N3CCC(C)CC3)c3ccccc3c2=O)cc1Cl | inconclusive: 0.501 µM [inhibitor, full curve, poor fit] |
| O=c1nc(Nc2ccc(OCc3ccccc3)cc2)sc2ncccc12 | inconclusive: 2 µM [inhibitor, full curve] |
| COc1cccc(NC(=O)CSc2nc(=O)n(Cc3ccncc3)c3c2CCC3)c1 | inactive |
| CC(C)OC(=O)c1c(-c2ccccc2)c(-c2ccccc2)nn(C)c1=O | inactive |

| Compound | Potency |
| --- | --- |
| Cc1nc(Nc2ccccc2F)c2oc3ccccc3c2n1 | inactive |
| COc1ccccc1C1C([N+](=O)[O-])=CC([N+](=O)[O-])=CN1C (stereo not drawn) | inactive |
| CC(C)CCN(C(=O)Nc1ccccc1)C(C)c1cccs1 (stereo not drawn) | inconclusive: 11.2 µM [inhibitor, partial curve, poor fit] and inconclusive: 28.2 µM [inhibitor, single point] |
| O=C(Nn1c(C2CCCCC2)nc2ccccc2c1=O)c1ccc([N+](=O)[O-])cc1 | inactive |
| CC1CCC2(CC1)NC(=O)N(CC(=O)Nc1ccc3c(c1)CCC3)C2=O (stereo not drawn) | inconclusive: 10 µM [inhibitor, single point] |
| Cc1ccccc1CSc1ccc(-c2ccc3c(c2)OCO3)nn1 | inconclusive: 28.2 µM [inhibitor, single point] |
| O=C(CCCN1C(=O)S/C(=C\c2ccccc2)C1=O)NNC(=O)c1ccccc1O | inconclusive: 3.16 µM [inhibitor, partial curve, poor fit] |
| Cc1onc(-c2ccccc2Cl)c1C(=O)N(Cc1ccc(N(C)C)cc1)C(C)C | inconclusive: 11.2 µM [inhibitor, single point] |
| O=C(C(=O)N1CCCCC1)c1c(-c2ccccc2)[nH]c2ccccc12 | inconclusive: 2.82 µM [inhibitor, full curve] |
| Cc1cccc(Cc2cnc(N3C(=N)SC(C)C3=O)s2)c1 (stereo not drawn) | inconclusive: 31.6 µM [inhibitor, partial curve, poor fit] |
| OC(c1ccc(Cl)cc1)c1ncc(-c2ccc(Cl)cc2)[nH]1 (stereo not drawn) | inconclusive: 8.91 µM [inhibitor, partial curve, poor fit] |
| Cc1sc(NC(=O)Cc2ccc3c(c2)OCO3)nc1-c1ccc2c(c1)CCN2C(=O)c1cccc(F)c1 | inconclusive: 6.31 µM [inhibitor, full curve, poor fit] |
| CCOC(=O)C1(CC2CC2)CCN(C(=O)c2cc(C3CC3)nc3ccccc23)CC1 | active: 10 µM |
| O=C(CN1C(=O)NC2(CCCCCCC2)C1=O)Nc1ccc(Br)cc1Br | inconclusive: 11.2 µM [inhibitor, partial curve, poor fit] |
| CCOC(=O)C(NC(=O)c1ccc(Cl)cc1Cl)(Nc1ccc(C)cc1)C(F)(F)F (stereo not drawn) | inconclusive: 31.6 µM [inhibitor, single point] |
| Cc1cc2cc(C(c3nnnn3CC3CCCO3)N3CCCc4ccccc43)c(=O)[nH]c2cc1C (stereo not drawn) | inconclusive: 20 µM [inhibitor, single point] |
| Cc1ccc(S(=O)(=O)C(CNC(=O)C(=O)NCc2ccccc2C)c2cccs2)cc1 (stereo not drawn) | inconclusive: 22.4 µM [inhibitor, single point] |
| CCC(C(=O)NC(C)(C)C)N(Cc1ccco1)C(=O)Cn1nnc(-c2ccc(F)cc2)n1 (stereo not drawn) | inconclusive: 31.6 µM [inhibitor, single point] |
| Cc1ccc(-c2nc3ccccc3s2)cc1NC(=O)c1ccc2c(c1)OCO2 | inconclusive: 10 µM [inhibitor, single point] |
| COc1ccc(CCNC(=O)C2CCN(S(=O)(=O)c3c(C)noc3/C=C/c3ccc(C)cc3)CC2)cc1OC | inactive |
| CCC(c1nnnn1C1CCCCC1)N1CCN(C2CCCC2)CC1 (stereo not drawn) | inconclusive: 28.2 µM [inhibitor, single point] |

| Compound | Potency |
| --- | --- |
| Cc1ccccc1-c1cc2c(c3c1ccn3C)C1CCC2O1 (stereo not drawn) | inconclusive: 10 µM [inhibitor, single point] |
| CN1CCN(c2ccc(C(F)(F)F)cc2NC(=O)Nc2ccccc2)CC1 | inconclusive: 5.62 µM [inhibitor, partial curve, poor fit] |
| O=C(NCC(c1ccco1)N1CCCC1)c1cn(-c2ccccc2)nc1-c1ccc(F)cc1 (stereo not drawn) | inconclusive: 3.16 µM [inhibitor, full curve, poor fit] |
| Cc1ccc(NC(=O)CN(C)CC(=O)Nc2ccccc2-c2ccccc2)cc1 | inconclusive: 7.94 µM [inhibitor, partial curve, poor fit] |
| CN1CCCC(CN2c3ccccc3Sc3ccccc32)C1 (stereo not drawn) | active: 10 µM |
| COc1ccc(-n2c(-c3ccc(Cl)cc3Cl)n[nH]c2=S)c(OC)c1 | inconclusive: 1.58 µM [inhibitor, partial curve, poor fit] |
| CCN(Cc1ccccc1)C(=O)C1CCN(Cc2ccc(SC)cc2)CC1 | inconclusive: 28.2 µM [inhibitor, single point] |
| COc1cc(-c2ccccc2)nc2ccccc12 | inconclusive: 11.2 µM [inhibitor, single point] |
| Cc1cc(C)cc(OCC(=O)N2N=C(c3cccnc3)CC2(O)C(F)(F)F)c1 (stereo not drawn) | inconclusive: 10 µM [inhibitor, single point] |
| COc1ccc2cc(C(c3nnnn3Cc3ccccc3)N3CCCCCC3)c(=O)[nH]c2c1 (stereo not drawn) | inconclusive: 3.98 µM [inhibitor, full curve, poor fit] |
| O=C(/C(=C/O)N=Nc1ccccc1)c1cccs1 | inconclusive: 11.2 µM [inhibitor, single point] |
| CC1(C(=O)NS(=O)(=O)c2ccc(Cl)cc2)CCN1C(=O)C1CC1 (stereo not drawn) | inactive |
| O=C(NCCN1CCN(Cc2ccccc2)CC1)Nc1cc(Cl)cc(Cl)c1 | inconclusive: 8.91 µM [inhibitor, partial curve, poor fit] |
| NS(=O)(=O)c1ccc(NC(=O)COc2cccc3ccccc23)cc1 | inconclusive: 12.6 µM [inhibitor, partial curve, poor fit] |
| CCN(CC)c1ccc(/C=C2/C(=O)c3ccc(C(=O)O)cc3C2=O)cc1 | inactive |
| COc1ccc(Nc2nc3cc(-c4sccc4C)sc3c(=O)n2C)cc1OC | inconclusive: 1 µM [inhibitor, full curve, poor fit] |
| CC(C)NC(=O)C1(C)CN(S(C)(=O)=O)CC(=O)N1Cc1cccc(F)c1 (stereo not drawn) | inactive |
| Cc1csc(NC(=O)CN2C(=O)COc3ccc(Cl)cc32)n1 | inconclusive: 28.2 µM [inhibitor, single point] |
| CN(CC(=O)Nc1cccc(F)c1)C(=O)c1cccc(S(=O)(=O)N2CCN(c3ccc(F)cc3)CC2)c1 | inconclusive: 28.2 µM [inhibitor, single point] |
| O=C(O)c1ccc(/C=N/Nc2cccc(C(F)(F)F)c2)cc1 | inconclusive: 1.12 µM [inhibitor, full curve] |
| C[C@H](O)[C@@H]1CN2CCc3c([nH]c4ccccc34)[C@@H]2C[C@@H]1N(C)C(=S)NCCc1ccccc1 | inconclusive: 11.2 µM [inhibitor, single point] |
